According to PubChem BioAssay (NCATS):
“And” between values parts separate entries of the source, which are not always exact repeats. Equal values may be shown once. This list was built around the results that the source calls inconclusive (neither active nor inactive); the mix of calls is not that of the screen. For part of these data: Potencies of inconclusive entries are doubtful fits and often do not repeat. The source made the active and inactive calls. The call rests on the fitted dose curve; in most records, active means well fitted curve in the direction sought with a large enough effect; inconclusive means small, poorly fitted or top-dose-only effect, or another doubt; inactive means no such curve, though single readings can be large; an effect the other way counts as inactive or inconclusive. Numbered stars: 1 amine (or outer) side, 2 acyl side, 3 side chain; on linkers, the order of the positions; unused ones are H or OH. Bridge positions count the residues as written; N and C are the ends. Square brackets hold non-standard residues; d marks the D form. Peptide text beside a SMILES is read from it. I, II: the chains in the order shown. Actinocin(9to1) = Cc1c2oc3c(C)ccc(C(=O)[*:1])c3nc-2c(C(=O)[*:2])c(N)c1=O; NMeV = CN[CH](C(=O)O)C(C)C; Sar = CNCC(=O)O

Experiments:
[1] = Viability qHTS for spleen associated tyrosine kinase inhibitor (SYKi) drug resistant MV4-11 cells (AID 1963824); further: nearly all actives have a fitted effect of over 35% in size; further: potency means the concentration at half of the fitted maximal effect
How it was run: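 SYK-inhibitor-resistant MV4-11 AML cells were seeded at 500 per well onto compound and cultured 72 hours (37 °C, 5% CO2). CellTiter-Glo was then added, and after 10 min at room temperature, luminescence gave viability.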

[2] = Quantitative highthroughput screen to assess conditional lethalithy of NOMO1 cells grown in RPMI1640 with dialyzed fetal bovine serum (RPMI+ds) (AID 1963877); further: nearly all actives have a fitted effect of over 30% in size; further: potency means the concentration at half of the fitted maximal effect
How it was run: (§1)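 Each medium arm—HPLM with 10% dialyzed FBS, or RPMI1640 with 5 mM glucose and 10% untreated or dialyzed FBS—was screened against an 11-point, 3-fold compound titration for 48 h at 37 °C, with CellTiter-Glo luminescence as endpoint.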

[3] = Quantitative highthroughput screen to assess conditional lethalithy of NOMO1 cells grown in Human Plasma-Like Medium with dialyzed fetal bovine serum (HPLM+ds) (AID 1963878); conditions: NOMO1 AML cells in HPLM+ds, CellTiter-Glo viability, 48 h; viability: at 45.8 µM (top of the series); further: nearly all actives have a fitted effect of over 35% in size; further: potency means the concentration at half of the fitted maximal effect
How it was run: as §1

[4] = Quantitative highthroughput screen to assess conditional lethalithy of P12 Ichikawa cells grown in RPMI1640 with dialyzed fetal bovine serum (RPMI+ds) (AID 1963880); conditions: Potency: P12-Ichikawa viability; further: nearly all actives have a fitted effect of over 35% in size; further: potency means the concentration at half of the fitted maximal effect
How it was run: as §1

[5] = Quantitative highthroughput screen to assess conditional lethalithy of NOMO1 cells grown in RPMI1640 with untreated serum (RPMI+s) (AID 1963876); conditions: NOMO1 AML cells in RPMI+serum, CellTiter-Glo viability, 48 h; viability: at 45.8 µM (top of the series); further: nearly all actives have a fitted effect of over 35% in size
How it was run: as §1

[6] = Quantitative highthroughput screen to assess conditional lethalithy of P12 Ichikawa cells grown in RPMI1640 with untreated serum (RPMI+s) (AID 1963881); conditions: Potency: viability; further: nearly all actives have a fitted effect of over 35% in size; further: potency means the concentration at half of the fitted maximal effect
How it was run: as §1

[7] = Quantitative highthroughput screen to assess conditional lethalithy of SEM cells grown in Human Plasma-Like Medium with dialyzed fetal bovine serum (HPLM+ds) (AID 1963882); further: nearly all actives have a fitted effect of over 35% in size; further: potency means the concentration at half of the fitted maximal effect
How it was run: as §1

[8] = Quantitative highthroughput screen to assess conditional lethalithy of SEM cells grown in RPMI1640 with dialyzed fetal bovine serum (RPMI+ds) (AID 1963884); conditions: SEM B-ALL cells, RPMI+dialyzed FBS, CellTiter-Glo viability, 48 h; viability: at 45.8 µM (top of the series); further: nearly all actives have a fitted effect of over 35% in size; further: potency means the concentration at half of the fitted maximal effect
How it was run: as §1

[9] = Cellular viability qHTS for adrenocortical cancer (ACC) cell line SW-13 (AID 1963989); conditions: SW-13 ACC cells viability, CellTiter-Glo, 48 h; activity (max response): stronger effect = lower value; further: potency means the concentration at half of the fitted maximal effect; nearly all actives have a fitted effect of over 65% in size
How it was run: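 IC50 and maximal-response values come from four-parameter logistic fits of titration data. SW-13 cells in serum-free medium received compounds (up to 46 uM final) for 48 h before CellTiter-Glo luminescence.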

[10] = Cellular viability qHTS for adrenocortical cancer (ACC) cell line NCI-H295R (AID 1963990); conditions: CellTiter-Glo ATP luminescence, 48 h; series mostly up to 46.1 µM; further: potency means the concentration at half of the fitted maximal effect; nearly all actives have a fitted effect of over 60% in size
How it was run: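 Adrenocortical carcinoma cells, suspended at 300 000 cells/mL in serum-free DMEM plus ITS, rested overnight before pin transfer of compound. After two days' incubation, ATP-dependent luminescence was recorded and curve-fitted.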

[11] = Quantitative highthroughput screen to assess conditional lethalithy of SEM cells grown in RPMI1640 with unreated serum (RPMI+s) (AID 1963883); conditions: SEM B-ALL cells, CellTiter-Glo viability, 48 h; viability: at 45.8 µM (top of the series); further: nearly all actives have a fitted effect of over 35% in size; further: potency means the concentration at half of the fitted maximal effect
How it was run: as §1

[12] = Quantitative highthroughput screen to assess conditional lethalithy of P12 Ichikawa cells grown in Human Plasma-Like Medium with dialyzed fetal bovine serum (HPLM+ds) (AID 1963879); conditions: Potency: viability; further: nearly all actives have a fitted effect of over 35% in size; further: potency means the concentration at half of the fitted maximal effect
How it was run: as §1

Measured: Potency
Tags describe the fitted curve by direction and shape.

N[C@@H]1CONC1=O
inactive: [1] | [2] | [3] | [4]

Cc1cnc(CNC(=O)c2c(=O)c3ccc(N4CCCN(C)CC4)nc3n3c2sc2ccccc23)cn1
inactive: [5]
active: [1] 1.68 µM | [4] 10.2 µM
inconclusive: [6] 9.11 µM [cytotoxic, partial curve] | [7] 12.9 µM [cytotoxic, partial curve, poor fit] | [8] 10.2 µM [cytotoxic, partial curve] | [9] 3.35 µM [cytotoxic, partial curve] | [10] 2.12 µM [cytotoxic, full curve]

CN(C)c1cc(NC(=O)CNC(C)(C)C)c(O)c2c1C[C@@H]1C[C@H]3[C@H](N(C)C)C(=O)C(C(N)=O)=C(O)[C@@]3(O)C(=O)C1=C2O
inactive: [1] | [2] | [4] | [6] | [7] | [11]
inconclusive: [9] 25.9 µM [cytotoxic, single point] | [10] 32.6 µM [cytotoxic, single point]

Cc1cn([C@H]2C=C[C@@H](CO)O2)c(=O)[nH]c1=O
inconclusive: [8] 48.1 µM [cytotoxic, single point]
inactive: [1] | [2] | [12] | [4] | [11]

O=C(NCCO[N+](=O)[O-])c1cccnc1
inconclusive: [1] 0.9 nM and 9.34 µM [cytotoxic, full curve, poor fit] | [2] 37.2 µM [cytotoxic, partial curve, poor fit] | [3] 29.6 µM [cytotoxic, single point]

CC(C)(C)OC(=O)CN(Cc1ccc(Cl)cc1)Cc1ccc([N+](=O)[O-])s1
inactive: [2]
inconclusive: [1] 7.42 µM [cytotoxic, full curve] | [3] 20.9 µM [cytotoxic, partial curve] | [12] 37.2 µM [cytotoxic, partial curve, poor fit] | [4] 52.6 µM [cytotoxic, single point] | [7] 20.9 µM [cytotoxic, partial curve] | [11] 37.2 µM [cytotoxic, single point] | [8] 37.2 µM [cytotoxic, single point]

NC(=O)c1cccnc1
inactive: [5] | [12] | [6]
inconclusive: [1] 0.0015 µM [rising, full curve, poor fit] | [11] 20.9 µM [cytotoxic, single point] | [8] 20.9 µM [cytotoxic, single point]

CN1C2CCC1CC(OC(=O)C(CO)c1ccccc1)C2 (centres undefined)
inactive: [1] | [2]

Cc1c2oc3c(C)ccc(C(=O)NC4C(=O)NC(C(C)C)C(=O)N5CCCC5C(=O)N(C)CC(=O)N(C)C(C(C)C)C(=O)OC4C)c3nc-2c(C(=O)NC2C(=O)NC(C(C)C)C(=O)N3CCCC3C(=O)N(C)CC(=O)N(C)C(C(C)C)C(=O)OC2C)c(N)c1=O (centres undefined) (I: TVP[Sar][NMeV] / II: TVP[Sar][NMeV]; ester I:1-I:C, II:1-II:C; linker I:N-II:N via Actinocin(9to1); configuration not given here)
inactive: [5] | [4]
active: [1] 0.001 µM | [9] 0.009 µM | [10] 0.802 µM

C#CCN[C@@H]1CCc2ccccc21
inconclusive: [3] 23.5 µM [cytotoxic, partial curve] | [11] 2.35 µM [cytotoxic, partial curve, poor fit]
inactive: [1] | [2] | [7] | [8]

CC(C)(C)OC(=O)Nc1ccc(-c2cc(C(=O)NCCCCCCC(=O)NO)no2)cc1
active: [1] 1.48 µM | [2] 9.35 µM | [7] 3.72 µM | [9] 15.8 µM

CC(=O)NC(CS)C(=O)O (centres undefined)
inconclusive: [2] 11.8 µM [cytotoxic, single point] | [3] 7.43 µM [cytotoxic, full curve] | [12] 8.33 µM [cytotoxic, full curve] | [4] 7.43 µM [cytotoxic, full curve] | [6] 11.8 µM [cytotoxic, single point] | [7] 11.8 µM [cytotoxic, single point] | [11] 9.35 µM [cytotoxic, full curve] | [8] 9.35 µM [cytotoxic, full curve, poor fit]
inactive: [1]
